# Laboratory results from PMC7819943, “Rice protein-binding microarrays: a tool to detect cis-acting elements near promoter regions in rice”.
# The list shows a part of the results.
# Biological target: T1, OsWOX13 (Oryza sativa, UniProt Q5QMM3 1-267)
# T1 sequence: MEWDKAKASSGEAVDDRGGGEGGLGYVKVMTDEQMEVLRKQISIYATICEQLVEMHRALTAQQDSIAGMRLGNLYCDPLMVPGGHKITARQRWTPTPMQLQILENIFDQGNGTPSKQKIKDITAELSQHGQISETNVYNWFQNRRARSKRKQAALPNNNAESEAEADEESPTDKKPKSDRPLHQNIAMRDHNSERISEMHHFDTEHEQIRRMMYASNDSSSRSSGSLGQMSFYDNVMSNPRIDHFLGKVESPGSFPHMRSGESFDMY
# Experiment: protein-binding microarray (RPBM); PBS, 2% BSA, 51.3 ng/ul salmon testes DNA, 50 uM zinc acetate, 200 nM TF, 25 C, 1 h; high values mean tight binding
# Conditions: protein: recombinant; tags: N-terminal polyhistidine and DsRed monomer fusion (pET32a); label: CyDye5-dUTP incorporated in the synthesized complementary strand; 3' TTTTT single-stranded linker to array surface; dsDNA, one strand shown
# Procedure, shortened: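 In PBS with 2% BSA, salmon testes DNA and 50 µM zinc acetate, 200 nM protein was incubated on a custom Agilent array at 25 °C for 1 h and then washed off. The array had been made double-stranded by primer extension with Cy5-dUTP and blocked with 2% BSA. The proteins were transcription factors fused N-terminally to polyhistidine and DsRed, expressed in E. coli BL21-CodonPlus and purified on Ni–NTA. The binding signal is per-feature fluorescence intensity (arbitrary units) from an Axon 4000B scanner.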
row,Sequence,binding signal
1,ATATATTGACGATTTAGTCTCTTTCAAACATGAGGATTAGCGGAGTCACCTAGTGCAG,6970 fluorescence intensity (a.u.)
2,TGAAAACGTTGATGATAGGATCAATTCCCAATTCTTCTGTCGGAGTCACCTAGTGCAG,3460 fluorescence intensity (a.u.)
3,AAGGTTAGTGATTAGCAATAGTGTACTCCGCCTCGTCACACGGAGTCACCTAGTGCAG,16900 fluorescence intensity (a.u.)
4,GTTAGATTAGAACTAGCTATTTTGCATCAACTTAGTGAATCGGAGTCACCTAGTGCAG,12800 fluorescence intensity (a.u.)
5,GCAGGGCAACGCAGCATGATTGATTTCGTCATTCTCCTCTCGGAGTCACCTAGTGCAG,9820 fluorescence intensity (a.u.)
6,TAAATTTAACATTAAATATATTTTGATACAATGTTTGTTTCGGAGTCACCTAGTGCAG,4380 fluorescence intensity (a.u.)
7,TAAATTTGGTTACTAAACATCTCAATCAGGACTTTCCTTTCGGAGTCACCTAGTGCAG,4320 fluorescence intensity (a.u.)
8,CAAAATTTAGAAATTAGAATTTGAGATTCTAAACATCAAACGGAGTCACCTAGTGCAG,3520 fluorescence intensity (a.u.)
9,TTCCCCGGCCTCAATCACGCTTCCAGCAGTCTCCCCTGTGCGGAGTCACCTAGTGCAG,5370 fluorescence intensity (a.u.)
10,ATATTGATTTTGTATCTAAAGAACAGACTTACATACTACGCGGAGTCACCTAGTGCAG,12000 fluorescence intensity (a.u.)
11,ATAATTACTGTTTTAATCACGTGATTTCGGATTCACCAACCGGAGTCACCTAGTGCAG,25200 fluorescence intensity (a.u.)
12,CTTGATTAGTACAGTATAATATCAAACATGCAGAAGTTAACGGAGTCACCTAGTGCAG,17200 fluorescence intensity (a.u.)
13,CCACCTAACACTAATCAACCAGTCAACCACCACATCTTCCCGGAGTCACCTAGTGCAG,8120 fluorescence intensity (a.u.)
14,CGTAGAAGGGATTGGGTGAAATTACATGGGCATATAGGGACGGAGTCACCTAGTGCAG,4240 fluorescence intensity (a.u.)
15,ATAAAATTTCTGATTAATTACTCCACTGTTTTACTTCTCTCGGAGTCACCTAGTGCAG,25100 fluorescence intensity (a.u.)
16,CAATCTAATCATGGATTCCTCCTAACCAATCTCCATCAGCCGGAGTCACCTAGTGCAG,5700 fluorescence intensity (a.u.)
17,ACTTGTGGAGGTAATTAATTAGGAGCCTAGACTTGTACTACGGAGTCACCTAGTGCAG,9480 fluorescence intensity (a.u.)
18,TCGAAAATTGGTTTTGTTAATATACTAGGACTGATTTCAGCGGAGTCACCTAGTGCAG,6190 fluorescence intensity (a.u.)
19,TGCAAATTGGATCATAACATCGTGGTTACGTGAAATTTACCGGAGTCACCTAGTGCAG,15500 fluorescence intensity (a.u.)
20,TGAATGTAATTATTATAGGGTCACATTGCTGGAGATGCGACGGAGTCACCTAGTGCAG,3540 fluorescence intensity (a.u.)
21,CTTTTAATTTTAGTATTCAAGAATGAATTCCTCCTGCAACCGGAGTCACCTAGTGCAG,7790 fluorescence intensity (a.u.)

row,Sequence,binding signal
1,CGCTTAAATTTAAGAACCGACTCTTTATATTATTGTGCGACGGAGTCACCTAGTGCAG,12000 fluorescence intensity (a.u.)
2,GGTGTGATTATGCAGATGGGTTAGGTTGCACCGACGGGTGCGGAGTCACCTAGTGCAG,23400 fluorescence intensity (a.u.)
3,CAGTTTTGGTTAATTAAGTAAATAATTGTCCTCAGAAAGTCGGAGTCACCTAGTGCAG,15100 fluorescence intensity (a.u.)
4,GTATAGTTAATCACATAATAGAGATACATGGAAGTTGCAGCGGAGTCACCTAGTGCAG,5500 fluorescence intensity (a.u.)
5,ACACTATTAATTATCATGAACACTGGCACATGAATATAAACGGAGTCACCTAGTGCAG,3770 fluorescence intensity (a.u.)
6,TTCCTAATTGGAGCCGGATTTTGTGGCCGTAGAGCTGCCTCGGAGTCACCTAGTGCAG,43400 fluorescence intensity (a.u.)
7,CCCCTGACTATCCCTCAAATTTCATTCCTTTTCTTTTCCTCGGAGTCACCTAGTGCAG,3390 fluorescence intensity (a.u.)
8,GTAATAACCTGATGGACAGGAGAAGCATAGCATTGCAGCACGGAGTCACCTAGTGCAG,3790 fluorescence intensity (a.u.)
9,TCAATCCAATCCGGCTGGTAATTAAACAACACGAGCGCAGCGGAGTCACCTAGTGCAG,6090 fluorescence intensity (a.u.)
10,TTGCTGAATTGATGACTTCCGCTCCTGGATTGCATGCATGCGGAGTCACCTAGTGCAG,11900 fluorescence intensity (a.u.)
11,GACTAATTAGGCTCAAAATATTCGTGTCGCGATTTTCATGCGGAGTCACCTAGTGCAG,23200 fluorescence intensity (a.u.)
12,CATTTCATTAATTTAAAAGTAATTTATTTAAATTGTAGTACGGAGTCACCTAGTGCAG,21500 fluorescence intensity (a.u.)
13,ACCACCATTGATTAACACGACTTTAACTTAGACTATCAATCGGAGTCACCTAGTGCAG,16400 fluorescence intensity (a.u.)
14,ACTTGTCAATTTCCCATCACAAAGAACTAAAACCACCCATCGGAGTCACCTAGTGCAG,9180 fluorescence intensity (a.u.)
15,TCATAATGCTGTTCTAAATAGATTTGTTATATCCATCACACGGAGTCACCTAGTGCAG,4570 fluorescence intensity (a.u.)
16,CAAATCAGGCGCAATTAGACTTAAAAGATTCGTCTCGTAACGGAGTCACCTAGTGCAG,6690 fluorescence intensity (a.u.)
17,AGCACAAATCAAGCAAACCAATCTCTTCCCGTCTTTCTCGCGGAGTCACCTAGTGCAG,3980 fluorescence intensity (a.u.)
18,GTTGATTCATAATCTCTATTGATATCGAATCATTTATTCACGGAGTCACCTAGTGCAG,4490 fluorescence intensity (a.u.)
19,CCACCTGTGATTGAAAACAATTACTTTTGAACATGCGCAGCGGAGTCACCTAGTGCAG,55200 fluorescence intensity (a.u.)
20,TATATATATATATATATATATATATATATATATACAGAAACGGAGTCACCTAGTGCAG,13200 fluorescence intensity (a.u.)
21,GCCAATAATTTTCCAACTCATGTACTTAAGCTGAAAGTTGCGGAGTCACCTAGTGCAG,3590 fluorescence intensity (a.u.)
